Each structure is given as a SMILES string. Values joined by “and” are separate entries in the source; they are usually repeats but may differ in a detail not shown here. Identical values can stand only once. The list shows a part of the results. These are further read-outs of the screen, such as a control signal, another cell line or another target. No call is given for them.

Holding throughout (test): Primary Screen for Target Class Profiling of Small Molecule Inhibitors of Methyltransferases
The target in assay [1] is Glycine N-methyltransferase (Homo sapiens) (UniProt Q14749). To be noted: purified enzyme, MTase-Glo SAH luminescence; measured here: GNMT inhibition; at 40 µM; stronger effect = lower value. The essentials:
(§1)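 Each enzyme was assayed with SAM and its substrate. SAH formation detected by MTase-Glo luminescence; single-point 40 uM screen[…].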

Assay [2] deals with Guanidinoacetate N-methyltransferase (Homo sapiens) (UniProt Q14353). Particulars: purified enzyme, MTase-Glo SAH luminescence; measured here: GAMT inhibition; at 40 µM; stronger effect = lower value. The gist of the method: as §1
For assay [3], the target named is Histamine N-methyltransferase (Homo sapiens) (UniProt P50135). Particulars: purified enzyme, MTase-Glo SAH luminescence; measured here: HNMT inhibition; at 40 µM; stronger effect = lower value. The gist of the method: as §1
Assay [4] has as its target Nicotinamide N-methyltransferase (Homo sapiens) (UniProt P40261). Particulars: purified enzyme, MTase-Glo SAH luminescence; measured here: NNMT inhibition; at 40 µM; stronger effect = lower value. The gist of the method: as §1
Assay [5] deals with Phenylethanolamine N-methyltransferase (Homo sapiens) (UniProt P11086). To be noted: purified enzyme, MTase-Glo SAH luminescence; measured here: PNMT inhibition; at 40 µM; stronger effect = lower value. The essentials:
as §1
% is set by controls: 0 for no effect and ±100 for the full control effect.

Take `CC1(C(=O)NC2CCCCCC2)Cn2c(cc3sccc32)C(=O)N1Cc1ccc(F)cc1` (stereo not given): the activity change, negative = inhibition is -9.93% in assay [1]; 0.734% in assay [2]; -10.9% in assay [3]; -15.3% in assay [4]; -11.5% in assay [5].
In the same order, the values of `COc1ccc(CN2C(=O)c3cc(-c4cccs4)nn3CC2(C)C(=O)NC2CCCCC2)cc1` (stereo not given) are 3.72%, 2.13%, 8.31%, 12.1% and 3.6%.
In the same order, the values of `CS(=O)(=O)N1CCCN(C(=O)CCCc2ccccc2)c2ccccc21` are -3.49%, -1.42%, 0.932%, -7.6% and -1.77%.
Taken in the same sequence, the figures for `COC(=O)c1ncn2c1C(=O)N(c1cccc(C)c1C)C(C)(C(=O)NCc1ccccc1)C2` (stereo not given) were -2.71%, 0%, 6.11%, 2.37% and 1.79%.
As for `O=C(Cn1cccc1-c1nc(-c2ccc(F)cc2)no1)NCc1ccccc1Cl`, the activity change, negative = inhibition was -1.73% in assay [1]; -0.327% in assay [2]; -1.8% in assay [3]; 1.72% in assay [4]; -4.68% in assay [5].
In the same order, the values of `CCN1C(=O)c2cc(C(=O)NCCc3ccc(SC)cc3)nn2CC1(C)C(=O)NC1CCCC1` (stereo not given) are 7.95%, 0.756%, -0.649%, 6.31% and 7.21%.
In the same order, the values of `CC(C)(C)c1ccc(C(=O)Nc2cn3cc(-n4ccnc4)ccc3n2)cc1` are 0.289%, 8.32%, 9.23%, -11.8% and 5.56%.
Regarding `COCCCNC(=O)N1CCCC(c2[nH]ccc2C(N)=O)C1` (stereo not given), the activity change, negative = inhibition in assay [1] is -1.79%; in assay [2] it was -2.02%; in assay [3] it was 0.459%; in assay [4] it was 0.692%; in assay [5], -1.35%.
In the same order, the values of `CCOC(=O)c1cc2n(n1)CC(C)(C(=O)NCCOC)N(c1ccc(OCC)cc1)C2=O` (stereo not given) are 7.72%, 0.477%, 9.35%, 11.7% and 8%.
In the same order, the values of `CCN1C(=O)c2cc(C(=O)NCc3ccc4c(c3)OCO4)nn2CC1(C)C(=O)NC1CCCC1` (stereo not given) are 0.012%, 3.98%, -3.84%, 3.97% and -0.406%.
`CC(=O)c1c(O)cc2c(c1C)C(=O)CC(O)C2` (stereo not given): the activity change, negative = inhibition in assay [1] was 4.29%; in assay [2], 7.04%; in assay [3], 11.4%; in assay [4], -5.82%; in assay [5], 4.45%.
Taken in the same sequence, the figures for `COc1ccc([C@@H]2CN(C(=O)CCc3ccsc3)C[C@H]2N(C)C)cc1` were 1.17%, -0.258%, -2.6%, -0.321% and 8.61%.
Taken in the same sequence, the figures for `CCN(CC)CCCNC(=O)c1cc2n(n1)CC(C)(C(=O)NC1CCCC1)N(C)C2=O` (stereo not given) were 5.6%, 5.92%, 2.04%, 3.4% and 1%.
In the same order, the values of `C=CCn1c(=O)c2ccc(C(=O)NC(C)C)cc2n2c(=O)n(CC(=O)Nc3cc(F)ccc3F)nc12` are 3.81%, 4.63%, 3.75%, -3.6% and -0.013%.
Take `CCOc1ccc(CN2C(=O)c3cc(-c4ccccc4)nn3CC2(C)C(=O)NCCCOC)cc1` (stereo not given): the activity change, negative = inhibition is -8.5% in assay [1]; -0.376% in assay [2]; -1.93% in assay [3]; -2.17% in assay [4]; -2.11% in assay [5].
Turning to `COc1ccc(OC)c(CCNC(=O)C(C)n2ccc3cc(S(=O)(=O)N4CCCC4)ccc32)c1` (stereo not given), the activity change, negative = inhibition in assay [1] was 0.218%; in assay [2], 3.39%; in assay [3], -2.82%; in assay [4] it was -0.93%; in assay [5], -2.92%.
In the same order, the values of `COc1ccccc1OCCN1CC(COc2cccc3[nH]c4ccccc4c23)OCC1=O` (stereo not given) are 1.15%, -4.65%, 8.62%, -19.3% and -2.75%.
As for `CN1C(=O)c2cc3ccccc3n2CC1(C)C(=O)NCC(=O)NCCc1ccco1` (stereo not given), the activity change, negative = inhibition in assay [1] was -6.58%; in assay [2] it was 4.23%; in assay [3], -3.08%; in assay [4], -1.98%; in assay [5] it was -4.45%.
In the same order, the values of `COc1ccc(CN2C(=O)c3nc4ccccc4n3CC2(C)C(=O)NCc2ccccc2)c(OC)c1` (stereo not given) are -0.413%, 0%, 3.81%, -21.1% and 3.58%.
In the same order, the values of `C[C@H](/C=C/[C@@]1(O)[C@H](C)CC(=O)CC1(C)C)O[C@@H]1O[C@H](CO[C@@H]2OC[C@@H](O)[C@H](O)[C@H]2O)[C@@H](O)[C@H](O)[C@H]1O` are 0%, 3.06%, 2.12%, -9.19% and 4.78%.
Regarding `COc1cccc(CCC(=O)N2CCCCC2c2nc(-c3ccncc3)n[nH]2)c1` (stereo not given), the activity change, negative = inhibition in assay [1] was -3.92%; in assay [2], -2.18%; in assay [3] it was -3.17%; in assay [4], -5.07%; in assay [5], -1.62%.
In the same order, the values of `CC(C)NC(=O)c1ccc2c(=O)n(C(C)C)c3nn(Cc4c(F)cccc4Cl)c(=O)n3c2c1` are 4.67%, 2.7%, 5.94%, 0.423% and -0.698%.
On to `CCCn1c(=O)c2ccc(Cl)cc2n2c(=O)n(Cc3ccc(Cl)cc3)nc12`, for which the activity change, negative = inhibition in assay [1] was 2.66%; in assay [2] it was 4.97%; in assay [3] it was 9.05%; in assay [4], -7.04%; in assay [5] it was 2.96%.
In the same order, the values of `C=CC[C@H](N)C(=O)O` are -7.45%, 0.721%, -2.42%, -9.95% and -0.361%.
With `Brc1ccc([C@H]2CN3CCSC3=N2)cc1`, the activity change, negative = inhibition in assay [1] is -1.07% and -17.5%; in assay [2], -5.42% and 8.57%; in assay [3] it was -6.9% and -12.8%; in assay [4], -13.9% and -10.9%; in assay [5] it was 0.916% and -1.25%.
Take `CCOC(=O)c1cc2n(n1)CC(C)(C(=O)NCc1ccccc1)N(Cc1ccccc1OCC)C2=O` (stereo not given): the activity change, negative = inhibition in assay [1] is -1.64%; in assay [2] it was 0.633%; in assay [3], 0.723%; in assay [4] it was -4.13%; in assay [5] it was -0.773%.
Turning to `CC1(C(=O)NC2CCCCCC2)Cn2c(cc3ccccc32)C(=O)N1Cc1ccccn1` (stereo not given), the activity change, negative = inhibition in assay [1] is -2.32%; in assay [2], 1.8%; in assay [3], -5.23%; in assay [4], -11.2%; in assay [5], -6.37%.
Taken in the same sequence, the figures for `Cc1cccc(-c2nnn3c2nc(NCC2CCCO2)c2ccccc23)c1` (stereo not given) were -8.12%, 5.05%, -1.66%, 1.76% and -7.53%.
Consider `O=C(CSc1ccncc1)N1CCN2C(=O)N(Cc3ccccc3)C(=O)[C@H]2C1`, for which the activity change, negative = inhibition in assay [1] is -5.4%; in assay [2], -7.4%; in assay [3], -7.6%; in assay [4] it was -7.55%; in assay [5] it was -14.2%.

(Values after PubChem BioAssay AID1745853 (National Center for Advancing Translational Sciences (NCATS), 2022).)
